Assay results from article PMC6664820, “Novel natural and synthetic inhibitors of solute carriers SGLT1 and SGLT2” (Pharmacology Research & Perspectives, 2019).
Structures can show the parent of a compound that is named as a salt.

Columns and labels:
[1] = target: T1, hSGLT2 (Homo sapiens, UniProt P31639); assay: SGLT2 inhibition assay for validation of screening hits and similar compounds (1‐NBD‐glucose uptake, CHO‐hSGLT2 cells); assay type: cell-based; conditions: 0.5 h, read-out: NORMALIZED SGLT2 ACTIVITY (%)
T1 sequence (P31639 1-672): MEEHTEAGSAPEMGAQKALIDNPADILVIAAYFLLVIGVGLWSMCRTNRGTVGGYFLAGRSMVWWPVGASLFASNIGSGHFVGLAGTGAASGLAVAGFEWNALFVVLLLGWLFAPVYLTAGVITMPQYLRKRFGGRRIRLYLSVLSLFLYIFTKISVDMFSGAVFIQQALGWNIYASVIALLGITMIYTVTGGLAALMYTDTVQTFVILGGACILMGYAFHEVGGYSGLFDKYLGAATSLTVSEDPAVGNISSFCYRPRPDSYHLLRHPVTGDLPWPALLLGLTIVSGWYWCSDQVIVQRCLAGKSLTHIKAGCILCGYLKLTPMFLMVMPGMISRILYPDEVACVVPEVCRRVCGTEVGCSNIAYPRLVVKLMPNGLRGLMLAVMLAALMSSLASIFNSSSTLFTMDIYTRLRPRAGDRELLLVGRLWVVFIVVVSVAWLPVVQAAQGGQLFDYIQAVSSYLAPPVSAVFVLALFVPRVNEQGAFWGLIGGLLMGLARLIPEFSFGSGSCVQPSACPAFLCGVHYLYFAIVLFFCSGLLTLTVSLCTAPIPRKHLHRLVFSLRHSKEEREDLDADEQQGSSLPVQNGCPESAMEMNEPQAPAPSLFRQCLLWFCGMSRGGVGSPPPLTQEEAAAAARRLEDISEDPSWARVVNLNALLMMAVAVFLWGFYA

[2] = target: T2, SGLT1 (Homo sapiens, UniProt P13866); assay: SGLT1 inhibition assay for validation of screening hits and similar compounds (1‐NBD‐glucose uptake, CHO‐hSGLT1 cells); assay type: cell-based; parameters: activity: dose or concentration left out as unconfirmed
T2 sequence (P13866 1-664): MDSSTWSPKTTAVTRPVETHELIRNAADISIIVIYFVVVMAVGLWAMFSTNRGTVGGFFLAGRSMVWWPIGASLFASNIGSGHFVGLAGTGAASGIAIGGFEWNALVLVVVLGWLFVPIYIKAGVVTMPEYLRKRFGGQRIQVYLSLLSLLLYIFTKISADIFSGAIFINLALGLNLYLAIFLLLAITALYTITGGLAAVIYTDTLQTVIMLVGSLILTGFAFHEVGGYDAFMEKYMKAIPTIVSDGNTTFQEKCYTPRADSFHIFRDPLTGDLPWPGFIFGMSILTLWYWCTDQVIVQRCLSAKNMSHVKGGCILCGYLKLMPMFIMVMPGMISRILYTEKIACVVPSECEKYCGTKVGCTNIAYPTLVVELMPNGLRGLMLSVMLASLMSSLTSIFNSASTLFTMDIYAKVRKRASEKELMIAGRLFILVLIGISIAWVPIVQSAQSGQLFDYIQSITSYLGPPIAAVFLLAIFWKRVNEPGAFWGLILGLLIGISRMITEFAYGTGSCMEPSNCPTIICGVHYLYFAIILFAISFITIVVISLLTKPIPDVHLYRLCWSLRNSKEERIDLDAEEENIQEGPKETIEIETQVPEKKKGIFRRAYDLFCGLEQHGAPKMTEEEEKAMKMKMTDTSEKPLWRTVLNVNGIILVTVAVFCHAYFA

[3] = test system: transporters; parameters: method as in earlier work; conditions: known transporter targets, per category of inhibited transporters; cited from earlier work
[4] = 0.5 h, read-out: NORMALIZED SGLT1 ACTIVITY (%)

CN1CCC[C@@H]1CCO[C@](C)(c1ccccc1)c1ccc(Cl)cc1 [Clemastine fumarate]
remaining activity at 5 µM [1]: 91% | remaining activity at 50 µM [1]: 51% | remaining activity at 5 µM [2, 4]: 94% | remaining activity at 50 µM [2, 4]: 59%

CN(C)CCN(Cc1cccs1)c1ccccn1 [Methapyrilene HCl]
remaining activity at 5 µM [1]: 96% | remaining activity at 50 µM [1]: 68%

Cc1ccccc1C(OCCN(C)C)c1ccccc1 (stereo not shown) [Orphenadrine HCl]
activity ([2]; read-out: NORMALIZED SGLT1 ACTIVITY (%) Mean): 90%

CN1CCC[C@@H]1CCO[C@](C)(c1ccccc1)c1ccc(Cl)cc1 [clemastine, reference compound]
SGLT1/2 inhibition stated in words [2]: showed SGLT1/2 inhibition

Cc1ccccc1C(OCCN(C)C)c1ccccc1 (stereo not shown) [orphenadrine, reference compound]
INHIBITED TRANSPORTERS [3]: SLC6A2, SLC6A3, SCN10A | SGLT1/2 inhibition stated in words [2]: novel SGLT1/2 inhibitors
